Data published in PubChem BioAssay AID504333 (National Center for Advancing Translational Sciences (NCATS), 2011).
Several values for one entry are separate records, joined by “and”; a condition that tells them apart may be missing. Equal values may be shown once. Hit rate of the full screen: of about 360,000 compounds, about 16,000 (4.4%) were called active. Inconclusive means that the source gave no clear call. Such entries were picked first, then a sample of the others. Calls follow the shape of the dose curve; as a rule, active = well fitted inhibition curve with a large enough effect; inconclusive = small, poorly fitted or top-dose-only effect; inactive = no such curve, though single readings can be large or run the other way. Where the call is inconclusive, the potency comes from a doubtful curve fit.

Biological target: Bromodomain adjacent to zinc finger domain protein 2B (Homo sapiens) (UniProt Q9UIF8)
Assay: qHTS Assay for Inhibitors of BAZ2B; also: nearly all actives have a fitted effect of over 60% in size
Conditions: AlphaScreen BAZ2B-H3K14Ac peptide displacement; series mostly up to 114 µM
How it was run: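 AlphaScreen displacement of biotin-H3(5-23)K14Ac peptide (50 nM final) from BAZ2B (50 nM final) in PBS pH 7.4, 0.01% Tween-20; complex preformed 30 min RT, then compounds (top 110 uM) 30 min RT, beads 20 min dark.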
Potency is read from the fitted curve at half-maximal effect; tags tell the direction and shape of the fitted curve.

Chain of UniProt Q9UIF8 (Q9UIF8 whole entry, looked up, the tested form may be a part): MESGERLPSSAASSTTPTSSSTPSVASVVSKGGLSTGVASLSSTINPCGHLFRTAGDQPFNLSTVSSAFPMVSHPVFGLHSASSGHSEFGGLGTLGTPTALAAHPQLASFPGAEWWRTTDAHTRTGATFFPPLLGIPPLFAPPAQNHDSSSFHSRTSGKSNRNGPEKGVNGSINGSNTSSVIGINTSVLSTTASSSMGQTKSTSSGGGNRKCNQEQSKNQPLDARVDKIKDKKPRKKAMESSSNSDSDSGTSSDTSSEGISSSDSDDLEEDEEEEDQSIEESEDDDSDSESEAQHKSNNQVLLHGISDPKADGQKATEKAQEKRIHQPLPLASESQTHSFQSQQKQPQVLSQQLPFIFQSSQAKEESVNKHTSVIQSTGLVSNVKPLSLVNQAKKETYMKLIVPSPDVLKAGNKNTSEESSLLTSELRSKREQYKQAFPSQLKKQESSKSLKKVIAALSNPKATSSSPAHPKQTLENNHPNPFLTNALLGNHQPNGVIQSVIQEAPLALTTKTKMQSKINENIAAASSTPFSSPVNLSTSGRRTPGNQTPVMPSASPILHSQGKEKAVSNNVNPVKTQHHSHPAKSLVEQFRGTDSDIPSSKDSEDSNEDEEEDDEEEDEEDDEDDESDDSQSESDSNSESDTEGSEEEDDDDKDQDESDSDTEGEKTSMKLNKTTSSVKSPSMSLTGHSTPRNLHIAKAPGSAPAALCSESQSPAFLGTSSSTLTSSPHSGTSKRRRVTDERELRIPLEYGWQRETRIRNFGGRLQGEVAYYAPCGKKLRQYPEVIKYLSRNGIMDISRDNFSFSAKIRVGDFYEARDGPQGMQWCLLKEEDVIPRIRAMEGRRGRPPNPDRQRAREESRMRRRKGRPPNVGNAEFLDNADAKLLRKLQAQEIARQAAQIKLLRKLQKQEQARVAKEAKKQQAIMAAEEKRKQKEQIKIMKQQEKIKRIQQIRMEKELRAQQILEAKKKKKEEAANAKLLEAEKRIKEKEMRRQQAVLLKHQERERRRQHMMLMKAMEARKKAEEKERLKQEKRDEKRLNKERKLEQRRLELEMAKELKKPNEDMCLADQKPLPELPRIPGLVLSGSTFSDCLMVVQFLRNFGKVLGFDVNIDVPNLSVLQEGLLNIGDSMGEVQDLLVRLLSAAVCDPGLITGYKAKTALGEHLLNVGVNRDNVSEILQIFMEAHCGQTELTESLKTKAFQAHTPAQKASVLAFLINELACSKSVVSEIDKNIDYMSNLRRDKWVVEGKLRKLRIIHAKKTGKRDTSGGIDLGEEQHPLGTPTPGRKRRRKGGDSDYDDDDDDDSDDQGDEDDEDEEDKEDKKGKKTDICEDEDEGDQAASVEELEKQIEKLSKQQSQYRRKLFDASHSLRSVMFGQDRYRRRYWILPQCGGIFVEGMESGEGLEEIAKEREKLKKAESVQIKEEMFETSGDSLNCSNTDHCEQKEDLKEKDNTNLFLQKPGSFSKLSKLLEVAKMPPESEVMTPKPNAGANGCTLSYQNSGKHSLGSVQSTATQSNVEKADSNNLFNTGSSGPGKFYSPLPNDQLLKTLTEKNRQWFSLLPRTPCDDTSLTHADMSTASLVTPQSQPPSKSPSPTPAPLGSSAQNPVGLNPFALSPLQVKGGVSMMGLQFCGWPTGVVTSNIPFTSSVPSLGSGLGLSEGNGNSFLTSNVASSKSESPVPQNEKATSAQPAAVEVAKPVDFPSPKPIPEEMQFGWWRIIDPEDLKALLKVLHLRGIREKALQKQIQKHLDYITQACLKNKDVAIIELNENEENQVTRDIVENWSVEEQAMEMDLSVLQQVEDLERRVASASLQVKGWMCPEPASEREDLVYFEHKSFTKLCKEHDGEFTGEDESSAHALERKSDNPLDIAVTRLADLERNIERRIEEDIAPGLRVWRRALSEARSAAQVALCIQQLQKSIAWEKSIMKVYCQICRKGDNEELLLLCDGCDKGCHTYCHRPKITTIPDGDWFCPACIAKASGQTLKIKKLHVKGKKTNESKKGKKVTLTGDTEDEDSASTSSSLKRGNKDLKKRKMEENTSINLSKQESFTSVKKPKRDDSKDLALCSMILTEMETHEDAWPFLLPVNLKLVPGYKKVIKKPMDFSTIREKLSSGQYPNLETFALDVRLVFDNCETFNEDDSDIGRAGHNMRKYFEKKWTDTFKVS

| Compound | Potency |
| --- | --- |
| O=C(CSc1nnc(-c2ccccn2)n1Cc1ccco1)c1ccccc1 | inconclusive: 89.1 µM [inhibitor, single point] |
| O=C(CCN1CCN(c2ccccc2)CC1)N/N=C/c1ccc([N+](=O)[O-])o1 | inconclusive: 50.1 µM [inhibitor, partial curve] |
| CS(=O)(=O)c1ccc(-c2nnc(NC(=O)c3ccc(S(=O)(=O)N4CCCC4)cc3)o2)cc1 | inconclusive: 100 µM [inhibitor, single point] |
| Cc1ccc(OCCCC(=O)Nc2sc3c(c2C(N)=O)CCCC3)cc1 | inactive |
| O=S(=O)([N-]c1nc2ccccc2nc1-[n+]1ccccc1)c1ccc(F)cc1 | inactive |
| Cn1cc(-c2ccccc2C(=O)O)c(=O)c2cc(Cl)ccc21 | inactive |
| COc1cc(/C=N/N2CCN(Cc3ccc(C)cc3)CC2)cc(OC)c1O | active: 56.2 µM |
| CN(CCO)C(=O)c1c(NC(=O)c2ccccc2)sc2c1CCCC2 | inconclusive: 89.1 µM [inhibitor, single point] |
| Cc1ccccc1-c1cccc([C@@H]2C[C@H]3CN(Cc4cccnc4)C(=O)[C@]34CCCN24)c1 | inactive |
| Cc1ccc(NC(=O)C(NC2CCCc3ccccc32)c2ccccc2)c([N+](=O)[O-])c1 (stereo not drawn) | active: 44.7 µM |
| O=C(O)CC(SCC(=O)Nc1ccc(Br)cc1)C(=O)O (stereo not drawn) | inconclusive: 89.1 µM [inhibitor, single point] |
| COc1ccc(N(CC(O)Cn2cnc3ccccc32)S(=O)(=O)c2ccc(C)cc2)cc1 (stereo not drawn) | inconclusive: 89.1 µM [inhibitor, single point] |
| O=C(CSc1nnc2c(n1)[nH]c1ccc(F)cc12)N1CCOCC1 | inactive |
| CCOc1ccccc1NC(=S)NC(=O)c1ccco1 | inconclusive: 28.2 µM [inhibitor, full curve] |
| CCN1CCN(C(=S)Nc2ccc(C(C)=O)cc2)CC1 | inactive |
| C=CCn1c(SCc2ccc3c(c2)OCO3)nc2scc(-c3ccco3)c2c1=O | inconclusive: 8.91 µM [inhibitor, full curve] |
| CCOC(=O)C1=C(N)Oc2cc(O)ccc2C1c1ccc([N+](=O)[O-])cc1 (stereo not drawn) | inconclusive: 44.7 µM [inhibitor, partial curve] |
| Cc1cccc(C(=O)NN/C=C/C(=O)c2ccccc2)c1 | inconclusive: 89.1 µM [inhibitor, single point] |
| Cc1nn(-c2ccccc2)c(N2CCCC2)c1/C=N/NC(=O)c1cc(-c2ccccn2)nc2ccccc12 | inconclusive: 7.08 µM [inhibitor, full curve, poor fit] |
| Cc1cccc(N(CC(=O)NCCSCc2ccco2)S(=O)(=O)c2ccccc2)c1 | inconclusive: 56.2 µM [inhibitor, partial curve] |
| CC(C)C1CC(CCN)(Cc2ccccc2)CCO1 (stereo not drawn) | inactive |
| COC(=O)c1ccc2c(=O)n(CCCCCC(=O)NCc3ccc4c(c3)OCO4)c(=O)[nH]c2c1 | inconclusive: 7.08 µM [inhibitor, single point] |
| COc1ccc(N2CC(C(=O)NC3=NCCS3)CC2=O)cc1 (stereo not drawn) | inconclusive: 89.1 µM [inhibitor, single point] |
| O=C(N/N=C1/C(=O)c2cccc3cccc1c23)c1ccc(Cl)cc1 | active: 50.1 µM |
| O=C(O)c1ccc(N2C(=O)CC(N3C(=O)/C(=C/c4ccc(Cl)cc4)SC3=S)C2=O)cc1 (stereo not drawn) | inconclusive: 44.7 µM [inhibitor, partial curve] |

| Compound | Potency |
| --- | --- |
| COc1ccc(OC(C)C(=O)NCc2nc(-c3ccc(Cl)cc3)no2)cc1 (stereo not drawn) | inactive |
| CCOC(=O)CSc1c(-c2ccccc2)c2cc(Cl)ccc2[nH]c1=O | inactive |
| COc1ccc2c(C(=O)CCl)c[nH]c2c1 | inconclusive: 100 µM [inhibitor, single point] |
| Cc1cccc(N2CC(C(=O)O)CC2=O)c1C (stereo not drawn) | inconclusive: 89.1 µM [inhibitor, single point] |
| COc1ccc(OC)c(C2NC(=O)N(C)C(C)=C2C(=O)OCc2ccccc2)c1 (stereo not drawn) | inconclusive: 50.1 µM [inhibitor, partial curve] |
| O=C(NC(CC(=O)N1CCN(c2ccccc2)CC1)c1ccccc1)c1ccccc1Cl (stereo not drawn) | inconclusive: 89.1 µM [inhibitor, single point] |
| O=C(CCl)N(Cc1cc(=O)[nH]c2ccccc12)c1ccccc1 | inactive |
| CCC(C(=O)NCc1ccccc1)n1ncn2c(cc3occc32)c1=O (stereo not drawn) | inactive |
| CCN(CC)S(=O)(=O)c1cccc(C(=O)N/N=C/c2cc(OC)c(O)c(OC)c2)c1 | inactive |
| Cn1c(CNc2nc(-c3ccccc3)cs2)nnc1SCC(=O)c1ccccc1 | inconclusive: 39.8 µM [inhibitor, full curve, poor fit] |
| CCc1ccc(CN(C)CC(=O)Nc2ccccc2[N+](=O)[O-])cc1 | inconclusive: 70.8 µM [inhibitor, single point] |
| COC(=O)c1c(C)c2c(C)cc3ccccn3c-2c1C(=O)OC | inconclusive: 12.6 µM [inhibitor, full curve] |
| CN(C)CC1CCCCC1OC(=O)c1ccc(S(=O)(=O)N(C)c2ccccc2)cc1 (stereo not drawn) | inactive |
| COc1ccc(NC(=O)Cn2ncc3c([nH]c4ccccc43)c2=O)cc1Cl | inactive |
| O=[N+]([O-])c1ccc(S(=O)(=O)Nc2nc3ccccc3nc2Nc2ccccc2)cc1 | inconclusive: 17.8 µM [inhibitor, full curve] |
| O=C(CN1CCN(c2ccc(O)cc2)CC1)NC(c1ccccc1)c1ccccc1 | inconclusive: 39.8 µM [inhibitor, partial curve] |
| CCOC(=O)c1cccc(NC(=O)c2cc(-c3ccc(Cl)s3)nc3ccccc23)c1 | inactive |
| O=C1CCC(=O)N1c1nc2n(n1)C(c1ccccc1)C=C(c1ccc(Br)cc1)N2 (stereo not drawn) | inconclusive: 89.1 µM [inhibitor, single point] |
| COc1ccc(CC(=O)OCC(=O)N2CCCc3ccccc32)cc1OC | inactive |
| Cc1cc(C)c(C(=O)OCCNC(=O)c2cccnc2)cc1C | inconclusive: 89.1 µM [inhibitor, single point] |
| O=C(O)c1ccccc1C(=O)c1ccc(N2CCCC2)c([N+](=O)[O-])c1 | inactive |
| Cc1cc(C)c(S(=O)(=O)N(C)CC(=O)NCc2ccncc2)c(C)c1 | inactive |
| COc1cc(C(=O)NC(c2ccccc2)c2ccccc2)cc(OC)c1C | inconclusive: 8.91 µM [inhibitor, partial curve, poor fit] |
| O=C(CCNc1ccc(Cc2ccncc2)cc1)c1ccc([N+](=O)[O-])cc1 | inconclusive: 28.2 µM [inhibitor, partial curve] |
| CCOC(=O)c1c(C)[nH]c(CCC(=O)Nc2cc(C)cc(C)c2)c1C | inactive |

| Compound | Potency |
| --- | --- |
| CCOC(=O)CC1C(=O)NCCN1c1nc2ccc(C)cn2c(=O)c1/C=C1\SC(=S)N(CC(C)C)C1=O (stereo not drawn) | active: 79.4 µM |
| Cc1ccc(C(=O)N/C(=C\c2cn(S(=O)(=O)N(C)C)c3ccccc23)C(=O)NCCCn2ccnc2)cc1 | inconclusive: 22.4 µM [inhibitor, full curve] and inconclusive: 35.5 µM [inhibitor, partial curve] |
| Oc1ccc(/C=N/Nc2cc(N3CCOCC3)nc(N3CCOCC3)n2)cc1O | inconclusive: 79.4 µM [inhibitor, single point] |
| COc1ccc(N2CCN(c3oc(-c4ccccc4OC)nc3C#N)CC2)cc1 | active: 8.91 µM |
| CCCn1ccc2c(OCC(=O)Nc3ccc(F)cc3F)cccc2c1=O | inactive |
| COc1ccc(CC(=O)Nc2nc3n(n2)C(c2ccccc2)CC(=O)N3)cc1OC (stereo not drawn) | inactive |
| Clc1ccccc1OCc1nc(-c2ccc(Br)o2)no1 | inconclusive: 100 µM [inhibitor, single point] |
| CCN1CCN(CCOCCOc2ccccc2-c2ccccc2)CC1 | active: 20 µM |
| Cc1ccccc1C1c2[nH]c3ccccc3c2CCN1Cc1cccn1-c1ncccn1 (stereo not drawn) | active: 25.1 µM |
| C/C(=N\NC(=O)Cc1cccn1C)c1cccc2ccccc12 | inconclusive: 22.4 µM [inhibitor, single point] |
| O=C(NCc1ccco1)c1cccn2c(=O)c3cc4ccccc4cc3nc12 | inconclusive: 11.2 µM [inhibitor, full curve] |
| Cc1ccc(NC(=S)N2CCCN(Cc3ccc(F)cc3)C2)c(C)c1 | inconclusive: 25.1 µM [inhibitor, full curve] |
| C[C@H](N)c1nnc(SCC(N)=O)o1 | active: 56.2 µM |
| CCn1c(O)c(C=C2N=c3ccccc3=N2)sc1=S | inactive |
| CCOC(=O)c1cc(C)sc1NC(=O)CN1CCN(C(=O)c2ccco2)CC1 | inactive |
| CC1(C)CC(NC(=S)NCc2ccc3c(c2)OCO3)CC(C)(C)N1 | active: 56.2 µM |
| COc1nc(/C(N)=N/O)nc(N2CCCCC2)n1 | inconclusive: 89.1 µM [inhibitor, single point] |
| O=C(O)CN1C(=O)c2ccc(Oc3ccc4c(c3)C(=O)N(CC(=O)O)C4=O)cc2C1=O | inconclusive: 35.5 µM [inhibitor, partial curve] |
| O=C(O)c1cccc(Cn2c(Cl)c(/C=N/NC(=O)c3cc4ccccc4cc3O)sc2=O)c1 | active: 25.1 µM |
| CCN(CC(=O)Nc1cc(Cl)ccc1C)C(=O)CCS(=O)(=O)c1ccc(Cl)cc1 | inactive |
| COC(=O)c1c(C)[nH]c(C)c1-c1cccc([N+](=O)[O-])c1 | inconclusive: 44.7 µM [inhibitor, partial curve] |
| CCOc1ccccc1N(C)C(=O)NCc1noc2ccccc12 | inactive |
| Cc1ccc(S(=O)(=O)NCCC(=O)N2CCC(C)CC2)cc1 | inactive |
